Source: article PMC4336329 (PLoS ONE, 2015)
About 14,000 (4.5%) of roughly 310,000 compounds showed an effect of 50% or more. Effects have a minus sign here. Some of the results follow.

target: human ether-à-go-go-related gene (hERG) potassium channel (human, UniProt Q12809); assay: primary screen, population patch clamp on CHO cells stably expressing hERG
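Also: peak tail current of the secondary pulse compared with the same well before compound.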

human ether-à-go-go-related gene (hERG) potassium channel, sequence (Q12809 whole entry, looked up): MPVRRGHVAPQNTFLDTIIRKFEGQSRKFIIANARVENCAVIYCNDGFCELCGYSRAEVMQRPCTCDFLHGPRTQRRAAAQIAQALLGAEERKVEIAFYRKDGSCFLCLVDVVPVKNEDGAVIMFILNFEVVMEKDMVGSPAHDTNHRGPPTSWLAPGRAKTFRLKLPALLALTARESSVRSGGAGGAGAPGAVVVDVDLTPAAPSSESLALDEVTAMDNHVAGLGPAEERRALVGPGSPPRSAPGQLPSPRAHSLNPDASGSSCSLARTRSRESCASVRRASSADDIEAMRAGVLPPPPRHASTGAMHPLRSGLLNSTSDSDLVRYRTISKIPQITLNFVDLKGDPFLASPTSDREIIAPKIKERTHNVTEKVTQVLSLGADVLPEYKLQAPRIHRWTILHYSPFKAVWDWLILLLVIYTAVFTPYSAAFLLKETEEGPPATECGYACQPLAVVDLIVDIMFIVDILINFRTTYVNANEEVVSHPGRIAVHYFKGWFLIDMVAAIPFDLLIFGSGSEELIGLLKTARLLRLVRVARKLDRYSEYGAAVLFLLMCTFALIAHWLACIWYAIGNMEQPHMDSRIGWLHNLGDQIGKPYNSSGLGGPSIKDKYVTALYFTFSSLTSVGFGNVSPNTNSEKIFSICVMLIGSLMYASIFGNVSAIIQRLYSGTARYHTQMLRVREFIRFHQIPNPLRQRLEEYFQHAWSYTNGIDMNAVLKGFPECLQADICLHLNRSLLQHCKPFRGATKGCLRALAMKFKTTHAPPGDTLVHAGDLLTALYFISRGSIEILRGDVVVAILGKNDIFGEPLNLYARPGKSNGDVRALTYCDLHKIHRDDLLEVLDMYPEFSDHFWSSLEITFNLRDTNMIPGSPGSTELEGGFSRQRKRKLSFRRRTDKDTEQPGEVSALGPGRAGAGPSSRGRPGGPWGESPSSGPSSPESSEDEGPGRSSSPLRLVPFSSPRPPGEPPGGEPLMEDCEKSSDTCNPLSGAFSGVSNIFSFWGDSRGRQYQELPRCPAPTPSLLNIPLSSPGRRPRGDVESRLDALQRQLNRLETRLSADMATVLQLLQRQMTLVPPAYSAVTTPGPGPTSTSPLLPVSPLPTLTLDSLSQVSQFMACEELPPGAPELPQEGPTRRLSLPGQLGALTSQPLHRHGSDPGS

Row | SMILES | hERG current change (%, negative = inhibition) at 10uM
1 | Cc1cc(C(F)F)n2nc(C(=O)Nc3cccnc3Cl)nc2n1 | 16.4%
2 | COCc1ccc(CN2CCCC(CCC(=O)NCc3cccc(OC)c3)C2)o1 (stereo not drawn) | -23.5%
3 | CCOC(=O)Cn1c(=O)oc2cc(S(=O)(=O)NC3CCCc4ccccc43)ccc21 (stereo not drawn) | 8.52%
4 | COc1cccc(C(=O)N(CN2CCCC2=O)c2cccc(Cl)c2)c1 | -25.4%
5 | CC1(C(=O)NC(=S)N(Cc2ccccc2)c2ccccn2)CC1(Cl)Cl (stereo not drawn) | 17.1%
6 | CC1CCCCC1NC(=O)c1ccc(S(=O)(=O)N2CCCC2)cc1 (stereo not drawn) | 10.3%
7 | Cc1nn(CC(=O)Nc2c(C)n(C)n(-c3ccccc3)c2=O)c(C)c1[N+](=O)[O-] | 8.37%
8 | COc1ccc(NC(=S)NC(=O)Cc2ccccc2)c(OC)c1 | 16.3%
9 | O=C(CN1C(=O)NC2(CCCC2)C1=O)Nc1nc2ccccc2[nH]1 | 14.3%
10 | CCc1ccc(C(=O)OCC(=O)NCCNC(=O)COC(=O)c2ccc(CC)cc2)cc1 | 10.7%
11 | CCOc1cc(C2C(C(=O)OC)=C(C)N=C3SC(C)C(=O)N32)ccc1OC(C)=O (stereo not drawn) | -7.61%
12 | c1ccc(-c2noc(-c3ccccc3-c3ccccc3)n2)cc1 | 5.26%
13 | COc1ccc(C(=O)NNC(=O)CN2CCC(n3nnc4cc(C(F)(F)F)ccc43)CC2)cc1 | -10.4%
14 | CC(C)N1C(=O)c2ccc(C(=O)O)cc2C1=O | 4.83%
15 | CCOC(=O)CN1N=C(c2ccc(C)cc2)CCC1=O | -47.2%
16 | Nn1c(SCC(=O)NCCN2C(=O)CSC2=O)nnc1-c1ccc(OC(F)F)cc1 | 13.2%
17 | CC(=O)O[C@]1(C(C)=O)CC[C@H]2[C@@H]3C=C(Cl)C4=CC(=O)CC[C@]4(C)[C@H]3CC[C@@]21C | -25.1%
18 | Cc1ccc(S(=O)(=O)N2CCCN(S(=O)(=O)c3ccc4c(c3)OCCO4)CC2)cc1 | -3.4%
19 | C(=NC12CN3CN(CN(C3)C1)C2)c1cccs1 | 18.9%
20 | O=c1oc2ccccc2c(NC2CCCCC2)c1NS(=O)(=O)c1ccc(F)c(Cl)c1 | 27.2%
21 | CC(=O)Nc1ccc(NC(=O)C2CCCCC2C(=O)O)cc1 (stereo not drawn) | 7.4%
22 | CC(C)(Oc1ccc(C2CC2(Cl)Cl)cc1)C(=O)O (stereo not drawn) | -7.57%

Row | SMILES | hERG current change (%, negative = inhibition) at 10uM
23 | O=C(Nc1nccs1)C1CCN(S(=O)(=O)c2cccs2)CC1 | -24.1%
24 | Cl.O=C(NCCCn1ccnc1)c1cccc(S(=O)(=O)N2CCCCCC2)c1 | -17.7%
25 | Cc1ccc(-c2c[n+](CC(=O)Nc3ccccc3)c3n2CCC3)cc1.[Cl-] | -27.8%
26 | O=C(c1cccn2c(=O)c3cc(Br)ccc3nc12)N1CCC2(CC1)OCCO2 | -37%
27 | CCOC(=O)c1c(NC(=O)C2=C(C)NC(=S)NC2c2ccc(F)cc2)sc(C)c1C (stereo not drawn) | 0.0855%
28 | O=C(NCCc1c[nH]c2ccccc12)N[C@@H](Cc1ccccc1)C(=O)O | 15.6%
29 | Fc1ccc(NCc2nnc3n2CCCCC3)cc1 | 22%
30 | COc1ccc(OCCn2c(=O)sc3ccccc32)cc1 | -8.81%
31 | CCOC(=O)CCC(=O)NNC(=O)c1ccc(NC(=O)c2ccccc2)cc1 | 12.7%
32 | O=C(NCc1ccccc1Cl)c1nnc(CS(=O)(=O)c2ccccc2)o1 | -21.5%
33 | O=C(/C=C/c1cccs1)N1CCN(Cc2ccc3c(c2)OCO3)CC1 | -47.9%
34 | CC(C)(C)NC(=O)CN(CCc1ccccc1)C(=O)c1csnn1 | 17.2%
35 | CCn1c(-c2cc(-c3ccccc3)sc2N)n[nH]c1=S | 11.5%
36 | CCc1ccc(-c2c(C)sc(NC(C)=O)c2C(N)=O)cc1 | -12%
37 | CC(C)c1ccc(NC(=O)/C(C#N)=C/c2ccncc2)cc1 | -28.6%
38 | COc1ccc(NS(=O)(=O)c2c(C(=O)N3CCCCCC3)c(C)n(C)c2C)cc1 | 9.93%
39 | COc1ccc(NC(=O)c2nc[nH]c2C(=O)N2CCN(c3ccccc3)CC2)cc1 | 3.64%
40 | COc1cccc(CNC(=O)C(C(=O)NCc2cccc(OC)c2)c2ncc(C(F)(F)F)cc2Cl)c1 | 32.4%
41 | C1=C(CCNC2=NCCCCC2)CCCC1 | 2.12%
42 | Cc1ccc(NNC(=O)c2ccc(Cl)cc2)nn1 | 15.8%
43 | C=CCc1c(Cl)nc(C)nc1NCc1ccccc1 | 15.1%
44 | COc1ccc(CCNC2CCCCC2)cc1.O=C(O)C(=O)O | -15.9%

Row | SMILES | hERG current change (%, negative = inhibition) at 10uM
45 | COC(=O)c1cc(=O)n2c(sc3ccccc32)c1C#N | 2.86%
46 | O=C1CSC2N1CCNC21CCCCC1 (stereo not drawn) | 6.94%
47 | CC(=O)NC(Cc1ccccc1)C(=O)N1CCN(C(=S)NCC(C)C)CC1 (stereo not drawn) | -7.76%
48 | O=c1[nH]c(-c2ccccc2)c(-c2ccccc2)o1 | 6.13%
49 | Cc1nc2n(COCCO)cnn2c(=O)c1Br | 14.6%
50 | Cc1cc(C)nc(NC(=O)c2cnc3sccn3c2=O)n1 | 0.473%
51 | Cc1cccc(NC(=O)/C=C/c2ccc([N+](=O)[O-])s2)c1 | 1.65%
52 | CCOc1cccc(NC(=O)C2CC(=O)NC(=Nc3ccccc3)S2)c1 (stereo not drawn) | 18.7%
53 | COc1ccc(N=C2NN=C(c3c(C)[nH]c4ccccc34)CS2)cc1.Cl | 15.3%
54 | CCOC(=O)C1(CCC(C)C)CC(CSc2nc3ccccc3[nH]2)OC1=O (stereo not drawn) | -25.2%
55 | Cc1ccc(/C=C2/CCc3c([nH]c4ccccc34)C2=O)cc1 | 26.8%
56 | OCC1(CC2CCCCO2)CCN(Cc2cccc(O)c2)CC1 (stereo not drawn) | 35.9%
57 | C=C[C@H]1[C@H](OC2OC(CO)C(O)C(O)C2O)OC=C(C(=O)OC)[C@H]1C[C@H]1CC(=O)C[C@H](CC(=O)CCc2ccc(O)cc2)O1 (stereo partly drawn) | -18.1%
58 | CN1CCN(c2ccc([N+](=O)[O-])c(N/N=C3\CN4CCC3CC4)c2)CC1 | 5.51%
59 | Cc1cc2nc3n(c2cc1C)CCCN3 | -7.22%
60 | C=CCn1c(=O)[nH]c2cc(C(=O)N3CCN(c4cc(C)ccc4C)CC3)ccc2c1=O | 2.61%
61 | O=C(O)[C@@H]1CCCN1C(=O)COc1ccc2c3c(c(=O)oc2c1)CCC3 | 2.17%
62 | COC(CN(C(=O)CCl)C(C(=O)NC1CCCCC1)c1ccccc1C)OC (stereo not drawn) | 1.63%
63 | O=C(NCc1ccccc1F)C1CC(=O)N(c2ccc3c(c2)OCCO3)C1 (stereo not drawn) | -2.83%
64 | O=C(NCc1ccc(F)cc1)C1CCN(S(=O)(=O)c2ccc(Cl)cc2)CC1 | 13%
65 | CC(=O)O/N=C(/c1nonc1N)N1CCN(c2ccc([N+](=O)[O-])cc2Cl)CC1 | -33.9%
66 | N#Cc1nc(Cc2cccc3ccccc23)oc1NCc1ccco1 | -1.59%

Row | SMILES | hERG current change (%, negative = inhibition) at 10uM
67 | COc1ccccc1C(=O)N/C(=C/c1ccccc1)C(=O)NC(CCSC)C(=O)O (stereo not drawn) | 7.6%
68 | COC(=O)c1sccc1NC(=O)/C=C/c1c(Cl)cccc1Cl | 14%
69 | CN1CCN(C(=O)C2=C[C@H](c3csc4ccccc34)C[C@H](OCc3ccc(CO)cc3)O2)CC1 | -27%
70 | Nc1nc(-c2ccc3ccccc3c2)c(C2(O)C(=O)Nc3c(Br)cc(F)cc32)s1 (stereo not drawn) | 8.98%
71 | Cc1c(NC(=O)c2cc(-c3ccc4c(c3)OCO4)on2)c(=O)n(-c2ccccc2)n1C | -4.5%
72 | Cc1occc1C(=O)Nc1cc(S(=O)(=O)N2CCOCC2)ccc1OC(C)C | 1.13%
73 | COc1cc(C(=O)O/N=C(\N)c2ccc([N+](=O)[O-])cc2)cc(OC)c1OC | -45.2%
74 | O=c1[nH]c(=S)n(Cc2ccco2)c(O)c1C=NCc1cccs1 | -20.3%
75 | c1ccc2c(-c3nnc4n3CCCCC4)c[nH]c2c1 | 3.69%
76 | COc1cc(NC(=O)CNc2ccc(Cl)c(S(=O)(=O)N3CCOCC3)c2)cc(OC)c1 | -1.36%
77 | O=C(CN(C(=O)Cn1nnc(-c2ccc(F)cc2)n1)c1ccc(F)c(Cl)c1)NCC1CCCO1 (stereo not drawn) | -14.4%
78 | CNS(=O)(=O)c1ccc(C(=O)NCC(=O)NCCC(c2ccccc2)c2ccccc2)cc1 | -24.5%
79 | COc1cc([N+](=O)[O-])cc(/C=N/NC(=O)Cn2cncn2)c1O | 5.88%
80 | Cn1c(=O)c2c([nH]c(=O)n2C)n(Cc2ccccc2)c1=O | 19.3%
81 | CCN(CC)S(=O)(=O)c1cccc(C(=O)NCC2CCCCC2)c1 | -10.7%
82 | Cc1c(C(=O)N2CCN(c3ccccn3)CC2)oc2c1C(=O)CC(C)(C)C2 | -13.2%
83 | O=C(COC(=O)Cn1cnc2ccccc2c1=O)Nc1ccc2c(c1)OCO2 | -1.05%
84 | O=C(N/N=C/c1ccccn1)c1sc2ccccc2c1Cl | -21.6%
85 | CCOc1ccc(C(=O)NCC(=O)Nc2ccncc2)cc1OCC | 4.58%
86 | Cc1nc(NC2CCCCC2)c2nnn(Cc3ccccc3Cl)c2n1 | 8.09%
87 | CCn1c(Cn2nnc(-c3ccccc3)n2)nnc1SCC(=O)N1CCOCC1 | -8.91%
